Source: PubChem BioAssay AID743279 (National Center for Advancing Translational Sciences (NCATS), 2014)
Screen size: about 360,000 compounds; about 17,000 (4.7%) were called active. Inconclusive means that the source gave no clear call. Such entries were picked first, then a sample of the others. No stated cut-off is given here; in the data, active means activity change below about -50%; inconclusive means mostly about -30% to -49%; inactive means weaker than that.

assay: qHTS for Inhibitors of Inflammasome Signaling: IL-1-beta AlphaLISA Primary Screen; conditions: THP-1 LPS/ATP IL-1B secretion, 16 h; at 57.5 µM, active compounds read low
Procedure, shortened: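 Secreted IL-1B measured by AlphaLISA bead assay after 16 h compound exposure of THP-1 cells; compounds (final up to 57.5 uM) added 1 h before LPS (250 ng/mL) and ATP (1.25 mM) stimulation; lower signal means less secretion.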
On the % scale 0 is the no-effect control and ±100 the full control effect.

Activity change, inconclusive:
CCC(=O)Nc1ccc(N/C(N)=N/c2nc(C)cc(C)n2)cc1 -32.3%
CC(C)(C)C1CCc2c(sc(NC(=O)CSc3ncn[nH]3)c2C#N)C1 (centres undefined) -39.4%
CCn1c(COc2ccc(Cl)cc2)nnc1SCc1ccc(C#N)cc1 -34.2%
O=C(Cn1nc(-c2ccc(Cl)cc2)ccc1=O)NCCCN1CCN(Cc2ccccc2)CC1 -43.2%
Cc1ccc(-c2nc3sc4c(c3c(=O)n2N)CC(C)(C)OC4)cc1 -37.9%
O=C(NCc1cccnc1)c1ccc(-c2cccc(Cl)c2Cl)o1 -39.1%
Cc1ccccc1NC(=O)Cc1nc(COC(=O)c2cc([N+](=O)[O-])ccc2NCCO)cs1 -32.8%
Nn1c(-c2ccc(F)cc2)nc2ccccc2c1=O -47.9%
CCCN=Cc1sc2ccc(OCC)cc2c1O -48.8%
C#CCN(C[C@H]1[C@H](OC(=O)NCc2ccccc2)[C@H](OC(=O)NCc2ccccc2)C[C@@H](C(=O)OC)[C@H]1C(=O)OC)S(=O)(=O)c1ccc(C)cc1 -33.1%
C=CC[C@@H](CC(=O)N[C@H](CO)Cc1ccccc1)C(=O)N[C@H](COC(=O)[C@@H](CC=C)CC(=O)OC(C)(C)C)Cc1c[nH]c2ccccc12 -40.2%
CC(=O)CCc1ccc(OCC(O)CNCCOc2ccc(C)cc2)cc1 (centres undefined) -31.6%
CCCCCCCCN1C(=O)[C@H](CC(=O)NCCc2ccccc2OC)C[C@@]2(C(=O)OCC)CCCC=C12 -48.5%
CN(C)CCNC(=O)c1cccc(-c2cccc3nccn23)c1 -40.8%
O=C(NCCc1ccccc1)c1c[nH]c2ccc(F)cc2c1=O -42.6%
COc1ccc(NC(=O)c2cccc3cccnc23)cc1S(N)(=O)=O -42.1%
COc1ccc(N2CCN(CC(=O)Nc3ccc(C)c(C)c3)CC2)cc1 -43%
COc1ccc(N2CCN(CC(O)COc3ccc4c(c3)CCC4)CC2)cc1 (centres undefined) -49.7%
Cc1cccc(NC(=O)/C(=C\c2ccc([N+](=O)[O-])o2)NC(=O)c2ccc(Cl)cc2)c1 -33.4%
Cc1cc(C)cc(OCC(=O)Nc2nonc2NC(=O)COc2cc(C)cc(C)c2)c1 -37%
COP(=O)(OC)c1nc(-c2ccc(C)cc2)oc1N1CCCCC1 -40.1%
N#Cc1nc(-c2ccco2)oc1N1CCc2ccccc2C1 -36.1%
COc1ccc2cc1Oc1ccc(cc1)C[C@H]1c3c(cc4c(c3Oc3cc5c(cc3OC)CCN(C)[C@@H]5C2)OCO4)CCN1C -38.5%
Cc1ccc2cc(CN(CCN3CCCC3)C(=O)Nc3ccc(F)cc3)c(=O)[nH]c2c1C -47.2%
CN=c1scc(-c2cc(OC)ccc2OC)n1/N=C/c1c(C)[nH]c2ccccc12 -33.1%
O=C(NOCc1ccccc1)c1ccc(Cl)cc1Cl -32.9%
C=CCc1cc(Cl)ccc1OCCNCCN1CCOCC1 -41.3%
Cc1ccc(S(=O)(=O)CC(c2ccccc2)N2CCCCC2)cc1 (centres undefined) -33.9%
COc1ccccc1-c1ccc(Nc2ccc(C(=O)N3CCOCC3)cc2)nn1 -31.4%

Activity change, inactive:
COc1ccc(CNc2oc(-c3cccc4ccccc34)nc2C#N)cc1 0%
CCc1ccc2[nH]c(=O)c(CN(Cc3ccc(F)cc3)C(c3nnnn3CCN3CCOCC3)C(C)C)cc2c1 (centres undefined) 23.8%
CC(OC(=O)c1ccc(O)cc1)C(=O)Nc1ccc(Oc2ccccc2)cc1 (centres undefined) -15.6%
CC(C)c1cc(C(=O)N/N=C/c2ccco2)n[nH]1 -5.35%
COc1cc(NC(=O)C(c2ccccc2)c2ccccc2)c(C(=O)O)cc1OC 16.4%
Oc1cccnc1Sc1cccc(C(F)(F)F)c1 11.9%
C=CCn1c(C)cc(C(=O)COC(=O)/C=C/c2cccc(OC)c2)c1C 4.88%
CC(C)CNS(=O)(=O)c1ccc(CCC(=O)N2CCN(c3ccc(F)cc3)CC2)cc1 0%
N/C(=N\OC(=O)COc1cc(Cl)c(Cl)cc1Cl)c1ccccn1 2.33%
C[C@H](CO)N1C[C@H](C)[C@H](CN(C)C(=O)Nc2ccc(-c3cccs3)cc2)OCc2cnnn2CCCC1=O -6.44%
CN(C)S(=O)(=O)c1ccc(NC(=O)CN2CCN(c3ccccn3)CC2)cc1 -10.1%
CCOc1cc(N2CCOCC2)c(OCC)cc1NS(=O)(=O)c1ccc2c(c1)CC(=O)N2 7.05%
COc1ccc(S(=O)(=O)N2CCOCC2)cc1NC(=O)COC(=O)C1=COCCO1 -8.31%
Cc1c(Cl)c(=O)n2c(=O)c(Cl)c(C)n12 13.4%
CCOc1ccc(OCCC(=O)OCC(=O)N2CCN(c3ccc(OC)cc3)CC2)cc1 11.6%
O=C(C1CCN(S(=O)(=O)c2c(Cl)cccc2Cl)CC1)N1CCCC1 14%
COc1ccc(Nc2nnc(SCC3CCCCO3)s2)cc1 (centres undefined) 0%
O=C1COc2ccc(C(=O)COC(=O)/C=C/c3ccc(Br)o3)cc2N1 0%
S=C(SSC(=S)N1CCOCC1)N1CCOCC1 17.2%
COc1cc(NC(=O)C2(C)CCCN2C(=O)C(C)C)cc(OC)c1OC (centres undefined) 18.2%

Activity change, active:
Cc1ccc(-c2[nH]nc(N)c2N=Nc2cccc(Cl)c2C)cc1 -76.2%
CN(C)C(=O)CSc1nc(-c2ccccc2)nc2c1CCCC2 -69.7%
Cc1nc2sccn2c1-c1csc(NCc2ccccc2)n1 -73.3%
O=C(Oc1ccc(-c2nnco2)cc1)N(c1ccccc1)c1ccccc1 -79.1%
CCOC(=O)c1ccc(N2C(=O)c3n[nH]c(-c4ccco4)c3C2c2cccc([N+](=O)[O-])c2)cc1 (centres undefined) -82.7%
